According to PubChem BioAssay AID1259400 (National Center for Advancing Translational Sciences (NCATS), 2018):
Out of some 350,000 compounds screened, about 2,100 (0.6%) were called active. The inconclusive results got no clear call from the source; some entries with a clear call stand among them for comparison.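 The calls were made as follows: active = activity change of -60% or lower, but not beyond a set lower limit; inconclusive = change between -60% and -40%, or beyond the set limit; inactive = change above -40%.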 Some compounds were tested as several samples or in several runs, with calls that do not always agree.

Target: Relaxin receptor 1 (Homo sapiens) (UniProt Q9HBX9)
Sequence of UniProt Q9HBX9 (Q9HBX9 whole entry, looked up): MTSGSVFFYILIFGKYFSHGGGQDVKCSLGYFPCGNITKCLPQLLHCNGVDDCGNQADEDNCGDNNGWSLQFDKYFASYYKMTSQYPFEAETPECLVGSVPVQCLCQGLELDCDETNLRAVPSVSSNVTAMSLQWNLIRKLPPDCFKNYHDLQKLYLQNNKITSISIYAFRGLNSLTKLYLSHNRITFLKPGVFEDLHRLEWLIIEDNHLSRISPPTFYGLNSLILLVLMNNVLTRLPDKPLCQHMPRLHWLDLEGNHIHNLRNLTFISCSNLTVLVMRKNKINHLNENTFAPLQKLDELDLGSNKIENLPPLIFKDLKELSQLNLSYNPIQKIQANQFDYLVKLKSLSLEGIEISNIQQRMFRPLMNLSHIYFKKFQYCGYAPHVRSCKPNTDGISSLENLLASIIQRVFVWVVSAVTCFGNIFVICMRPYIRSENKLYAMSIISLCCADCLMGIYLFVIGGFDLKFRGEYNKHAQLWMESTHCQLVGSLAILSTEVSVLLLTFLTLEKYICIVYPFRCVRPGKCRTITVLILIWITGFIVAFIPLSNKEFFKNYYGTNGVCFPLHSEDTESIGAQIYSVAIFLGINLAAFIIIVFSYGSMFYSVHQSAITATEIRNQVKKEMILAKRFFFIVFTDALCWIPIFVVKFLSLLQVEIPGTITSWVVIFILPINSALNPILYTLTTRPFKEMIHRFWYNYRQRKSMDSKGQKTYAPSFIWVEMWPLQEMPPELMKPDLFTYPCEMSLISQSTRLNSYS
Experiment: qHTS Assay for Antagonists of the Relaxin Receptor RXFP1
Details: HEK293-RXFP1, relaxin-stimulated cAMP HTRF, 30 min; at 57.5 µM; stronger effect = lower value
% is scaled to controls: 0 for no effect and ±100 for the full control effect.

Compound | activity change, negative = inhibition
Cc1ccc(Cn2c(Cc3ccccc3)nc3ccccc32)cc1 | inconclusive: -41.2%
COc1ccccc1/C=C/C=N/n1c(C2CCCCC2)n[nH]c1=S | inconclusive: -56.7%
CCOc1cc(CN2CCCCCC2)ccc1OC | inconclusive: -55.5%
CCOc1ccc2c(c1)OC(c1ccc(C)cc1)(C(F)(F)F)NC2=O (stereo not given) | inconclusive: -48.6%
O=C(c1ccc2c3c(cccc13)CC2)C1CCCN(Cc2cccnc2)C1 (stereo not given) | inactive: -16.6%
CC1=C(C(=O)OCC2CCCO2)C(c2ccc(F)cc2)NC(=O)N1 (stereo not given) | inconclusive: -41.3%
COCCOc1cc(NC(=O)c2sccc2Oc2ccc([N+](=O)[O-])cc2F)c(Cl)cc1Cl | inactive: -15.9%
CCOC(=O)C1(Cc2cccc(OC)c2)CCCN(C(=O)c2cc(C)oc2C)C1 (stereo not given) | inconclusive: -46.9%
O=C(Cn1cc(-c2nnnn2-c2ccc(Cl)cc2)c(=O)c2ccccc21)c1ccccc1 | active: -98.5%
COc1ccc(C(=O)c2no[n+]([O-])c2C(=O)c2ccc(OC)cc2)cc1 | inconclusive: -57.6%
O=C(/C=C/c1ccc(O)c([N+](=O)[O-])c1)c1ccc2ccccc2c1 | inactive: -23.1%
Cc1ccccc1CN1C(=O)c2ccccc2Sc2ccc(C(=O)NCCCN3CCOCC3)cc21 | active: -63.9%
O=C(O)c1ccccc1NS(=O)(=O)c1ccc(NN=Cc2cccc(Cl)c2)c([N+](=O)[O-])c1 | active: -68.4%
COc1ccc(-c2cc(C(F)(F)F)nc(N)n2)cc1 | active: -60.6%
Cc1nn(-c2ccc(N3CCCCC3)nn2)c(C)c1CCC(=O)Nc1cccc(F)c1 | inconclusive: -41.4%
COc1ccc(/C=C/C(=O)N(C)C2CCCCC2)cc1Br | inconclusive: -57.5%
Cc1cc2cc(C)c(NCCNC(=O)c3ccccc3)nc2cc1C | inactive: -4.94%
C=CCn1c(-c2ccc(OC)cc2)csc1=Nc1c(C)n(C)n(-c2ccccc2)c1=O | inactive: -4.65%
CCC(C)(C)C1CCC2(CC1)NC(=O)N(CC(=O)N(C)Cc1ccc(OC(F)F)cc1)C2=O (stereo not given) | inconclusive: -40.1%
O=C(NCC1CCN(Cc2cccc(Cl)c2)CC1)C1CCCN(c2ncnc3c2nc2n3CCCCC2)C1 (stereo not given) | inconclusive: -40.6%
CN(C)CCNc1nc2sc3c(c2c(=O)n1CCc1ccccc1)CCCCC3 | inconclusive: -47%
O=C(COc1c(Cl)cccc1Cl)Nc1ccccc1N1CCCC1 | inconclusive: -40.6%
CCOc1nc(-c2ccccc2)c2cc(C)ccc2n1 | inconclusive: -57.2%
C/C(=N\O)c1ccc2c3c([nH]c2c1)CCCC3 | inconclusive: -42.9%
O=C(COC(=O)/C=C/c1ccccc1[N+](=O)[O-])NCC1CCCO1 (stereo not given) | inconclusive: -50.3%
O=C(NCc1cc([N+](=O)[O-])ccc1O)c1cc(-c2ccncc2)nc2ccccc12 | inconclusive: -58.1%
CCn1c(=O)c(NC(=O)c2ccccc2)c2n(c1=S)CCCCC2 | inactive: 8.94%
CCOC(=O)c1cnc2ccc(C)cc2c1NCCc1ccc(OC)c(OC)c1 | inconclusive: -40.2%

Compound | activity change, negative = inhibition
CCOc1ccc(C(C(=O)NCC2CCCO2)N(CCc2cccc(C)c2)C(=O)c2snc(C(N)=O)c2N)cc1 (stereo not given) | inconclusive: -59.8%
O=Nc1c(O)n(Cc2cccc(C(F)(F)F)c2)c2ccccc12 | inconclusive: -54.8%
Cc1cc(C(=O)COC(=O)c2ccc(O)cc2O)c(C)n1-c1ccccc1 | active: -87.2%
COc1ccccc1C(=O)COC(=O)c1ccc(N(C)C)cc1 | inactive: -13%
Cc1ccc(C(=O)Cn2cccn2)cc1 | inconclusive: -41.4%
CCCc1cc(=O)[nH]c(SCc2nc(-c3ccc(C)cc3)no2)n1 | inactive: 11.1%
COc1ccc(/C=C(\C#N)c2c[nH]c3ccccc23)cc1 | inconclusive: -54.6%
CC1CC(=O)c2ccccc2C1C (stereo not given) | inconclusive: -40.1%
CC1(C)CC2CC(C)(CN2C(=O)COC(=O)CNC(=O)c2ccc(Cl)c(Cl)c2)C1 (stereo not given) | inactive: -2.85%
Nc1nonc1-n1nnc(C(=O)N/N=C/c2cc(Br)ccc2O)c1CSC1=NCCS1 | inconclusive: -52.5%
CCOC(=O)CC(=O)CSc1nc2ccccc2c(=O)n1-c1ccc(C(=O)NCCOC)cc1 | inconclusive: -42.5%
O=c1c2cn[nH]c2[nH]c(=S)n1-c1cccc2ccccc12 | inconclusive: -45.8%
CCC(=O)OCCNc1cc(SCCC(=O)OC)c2nonc2c1[N+](=O)[O-] | inactive: -34%
Cc1ccccc1CNC(=O)CCC(=O)N1Cc2ccccc2Oc2ncccc21 | active: -120%
C=C1C(=O)c2sccc2C(c2ccc(OC)c(OC)c2)C1COC(C)=O (stereo not given) | active: -104%
CC(=O)c1ccc(NC(=O)c2ccc(NC(=O)CCS(=O)(=O)c3cccs3)cc2)cc1 | inconclusive: -54.8%
O=C(Nc1ccc(F)cc1)c1cc2c(s1)CCCC2 | inconclusive: -42.3%
S=c1[nH]nc(-c2ccc(Cl)cc2)n1Cc1ccccc1 | inconclusive: -47.5%
O=C(/C=C/c1ccccc1Cl)c1ccccc(=O)c1O | active: -79.1%
Cc1ccc(/C=C/C(=O)c2nc3ccccc3[nH]2)cc1 | inconclusive: -49%
CCCCN(CC)CCNC(=O)c1cn(-c2ccc(Cl)cc2)c(=O)c2ccccc12 | inconclusive: -41.9%
N#C/C(=C\c1ccc(OCc2ccccc2)cc1)C(N)=O | inconclusive: -44.2%
C=CCC(CC=C)(CNC(=O)C(=O)Nc1cccc(C(F)(F)F)c1)c1ccccc1 | inconclusive: -46.7%
Cc1ccc(NC(=O)COc2ccc(N(C)C(=O)C(C)(C)C)cc2)cc1S(=O)(=O)N1CCCCC1 | inactive: 5.52%
CCOc1ccc(C(c2c(O)cc(C)n(CCOC)c2=O)N2CCN(c3ccccc3F)CC2)cc1 (stereo not given) | inactive: -3.01%
COCCNC(=O)NC12CC3(C)CC(C)(CC(C)(C3)C1)C2 | inconclusive: -57.8%
Cc1nc(Cl)sc1C(=O)Nc1ccc(C(C)(C)C)cc1 | inconclusive: -43.5%
